The source gives no read counts; variants with many changes may rest on few reads.

B1: LINE1-full (parent)
chain: UACGUAGGUGGUUUUCCCCUGAUAGUGCUAAGGGGGCCUGGAAGUUUGGACUGGGCAGAGCUCAACACAGCGUGGCAAAGUGGCUGUGGCUAGACUGCCUCUCUGGAUUCCUCGUCACUCAGCAGGGCAUCUCUGAGAGAAAUGCC

The variants in this data set derive from B1. The data set is described as follows: self-cleavage, relative activity (ratio to wild type); higher = more cleavage; in vitro, sequencing; the parent is a self-cleaving ribozyme.
For G32U U47C A65C, the self-cleavage was 0.1.
Take G34A A59G A77U U104A: the self-cleavage was 0.06.
Consider A31U U96C U143A, for which the self-cleavage is 0.16.
For G34A U85C U130C A141G the value was 0.28; for A30U A43G C51A U115C, 0.9.
With A31G A42G U85A A94G, the self-cleavage was found to be 0.28.
As for G33A G36A U47C A140G, the self-cleavage was determined as 1.1.
For A31G A43U A57G U119C A141G the value was 1.67.
For G32A A94G U96A G122C, the self-cleavage was determined as 0.03.
For the variant A31G G41A U47A A50U C56U A57G, the self-cleavage is 0.06.
For A30U A92G U104C A141G the value was 0.
For A31U A67U A142G U143C the value was 0.07.
As to A30U A65U A138C, the self-cleavage worked out at 0.15.
Take A31U A42G A79G U87C: the self-cleavage was determined as 1.53.
For A31U U45A C145U the value was 1.3.
For G33A C37U A43U A77G U102A G126A A141G, the self-cleavage stood at 2.23.
On to A30U U85C U108C G144A, for which the self-cleavage was 0.22.
For G34A A59U G74A U115A the value was 0.56; for A30U A69G U134C, 0.78.
Take G33A U46C U132A: the self-cleavage came to 1.48.
On to G34A U85C A136G A142G, for which the self-cleavage stood at 0.
On to A31G U46C U96C C110U, for which the self-cleavage worked out at 0.
For A31G A43G U62A U108C the value was 0; for G33U A50G A141G, 1.47.
For A30G U52C C90U the value was 0.05.
Consider A31U G89U A121C, for which the self-cleavage was found to be 0.02.
For A30G U115C A136U A138G, the self-cleavage worked out at 0.
In the case of A30G C71U U73C, the self-cleavage came out at 0.71.
For the variant A30U G40U G49A C103U A117G, the self-cleavage stood at 0.82.
For A31U U73C A121U the value was 1.97; for G32A U39C U85C U104A, 0.23; for A30G U62A U85A U119C, 0.37.
As for G32U A42G A65U A77G U108C, the self-cleavage came out at 1.02.
Turning to A31U A57U U108A, the self-cleavage amounted to 0.11.
For A30G U102A C128U G144A, the self-cleavage stood at 1.12.
As to A31G C51U A59G A94G U100C U134C, the self-cleavage was determined as 0.
In the case of A31G C128U A129U, the self-cleavage amounted to 2.14.
Turning to A31G U102C U109C, the self-cleavage stood at 1.53.
As to G32A U39C A59U, the self-cleavage turned out to be 0.54.
In the case of G33A U73A A78G C99A U112C U115C, the self-cleavage amounted to 0.24.
A31G A107G G127C: the self-cleavage came to 0.82.
With G33A U108C U115A, the self-cleavage is 1.66.
Take A30U U46C U104C: the self-cleavage stood at 1.47.
Turning to A31G U85C A121U, the self-cleavage came to 0.3.
Turning to A31G A42G C76U A124G, the self-cleavage came out at 1.31.
On to G33C A65U U119C, for which the self-cleavage amounted to 0.
For A30G A69G U109C U143A the value was 0; for A30U C84A A107U, 0.2.
With G32A G74A U104C U130C, the self-cleavage came to 1.04.
Take A31U U62C U96A A121G: the self-cleavage is 0.04.
Turning to G34U A50G A67U U73A A107G, the self-cleavage turned out to be 0.
Regarding A31U G34C A92G U134A, the self-cleavage stood at 0.3.
Regarding G32A U96A A136G, the self-cleavage came to 0.04.
Take A30G U87C C113G A142G: the self-cleavage stood at 0.45.
On to G34A U47A U96C, for which the self-cleavage came to 0.09.
As to A31U G33A U91C U102C, the self-cleavage amounted to 0.6.
For A31G G35C C37A A138G A140G the value was 1.34.
Take G33A A59G U104C: the self-cleavage turned out to be 0.07.
Regarding G33A U112C A117C A141G, the self-cleavage came to 2.73.
As to G33U A43C U47C, the self-cleavage turned out to be 1.72.
For A31G G55C A69G the value was 0; for A31G U39C A141G, 1.01.
As for G32U U62C U143A, the self-cleavage amounted to 0.1.
Take G32A U62C A69G: the self-cleavage was found to be 0.28.
Regarding G34A A67G A107U A117C, the self-cleavage was 0.21.
On to G33U G54U A57G C103A A124G, for which the self-cleavage worked out at 0.06.
Consider A30G U96C A140G, for which the self-cleavage was found to be 0.19.
A30U U47C A67G: the self-cleavage is 0.73.
With A31U G70A U87A, the self-cleavage was 0.05.
As for G32U A79G U100C A117U, the self-cleavage came out at 2.73.
Regarding A30U U87A A94G, the self-cleavage came out at 0.07.
Turning to G34A A42G A50U U91A A92G A129U, the self-cleavage was 0.1.
On to A31U A78G U134C, for which the self-cleavage is 0.63.
With A30U A31U A92U, the self-cleavage was 0.55.
For G34A U47C U73C U112C U130A, the self-cleavage came out at 2.72.
Consider G34A U102A A141G, for which the self-cleavage was 1.14.
Consider G32U A43G U81C, for which the self-cleavage came out at 1.77.
As for A30U A69G G89U, the self-cleavage worked out at 0.11.
Take G32A U81A C90A U96A U119C: the self-cleavage amounted to 0.06.
As for A30U A77U U104C A141G, the self-cleavage stood at 0.85.
Consider A31U A42G A67G, for which the self-cleavage came out at 0.44.
Turning to A30U G53U U87A A117C A140G, the self-cleavage came to 0.
For G33U U81C U85C A141G, the self-cleavage was found to be 0.1.
For G34A A69U U91C A142G the value was 0.06; for A31G A94U A124U A142G, 0.21; for A31G G32C A117G, 0.71.
Regarding A30G U45G A59G A69U C76U A121G, the self-cleavage came to 0.21.
Take A31U U119C A142G: the self-cleavage came out at 2.19.
For A31G A42G U47C the value was 0.63; for A30U A64G A79G G114C, 0.36.
As to G32A U100C A117G A129G, the self-cleavage worked out at 1.53.
For A31G U46A U85C A129U the value was 0.22.
Regarding A31U U73C C76U U134C, the self-cleavage amounted to 1.86.
For A31G A43G A142G the value was 1.76; for G32A U45A U109A, 1.34; for G32U U73C U91A, 0.81.
As to A31U U45C U115C A138U A140G, the self-cleavage was 0.92.
Consider A30G A77U U81C U85A, for which the self-cleavage stood at 0.45.
A31G C51U U73A U112A: the self-cleavage was 0.36.
Consider A31G C103A U134A, for which the self-cleavage was 0.9.
For A30U A42G A69C the value was 0.08; for A31C A77U A107C G127A U134C A140G, 1.8.
Turning to A30G U39C U112C A142G, the self-cleavage amounted to 0.
For the variant G34C U73C U100C, the self-cleavage was 2.83.
For the variant G34U A57G A69G A78U A141G, the self-cleavage was determined as 0.71.
Take A31U A57U A121G: the self-cleavage was found to be 0.12.
Consider A30U U52A A107G A138G C146A, for which the self-cleavage amounted to 1.34.
For A30G A67G U119A the value was 0.81; for G32A A78G U104A, 1.25; for A31G U109A U143A, 1.45.
For G34A U46C G75C the value was 0.64.
Turning to A31G U73A C98U, the self-cleavage worked out at 0.17.
For A30U A43G U134C the value was 0.84.
With A30U C56U A79G A140G, the self-cleavage came out at 0.12.
For G34A U104C U119C G125A the value was 0.67; for A31U A59G C145U, 0; for A30G G36C A42G A57U, 0.47.
For the variant A31C U52C A79G U96C C99A, the self-cleavage was 0.32.
For G32A A57G U115C A138U the value was 2; for A30G G58A U96C A117C A136G, 0.08.
For the variant G33U U46C U102C, the self-cleavage came to 2.37.
A30U U47C U81A U108C U112A U115A: the self-cleavage was 2.53.
In the case of A31U U39A A121G, the self-cleavage stood at 0.61.
For G33A A50G U62C U102C the value was 0; for A31U U87C A117C, 0.61.
Turning to G32C U47C G97A, the self-cleavage worked out at 0.3.
For G32C G34A C61U A117G the value was 0.09; for G34A U73C A79G, 1.75; for A31G A79U G125A, 2.11.
For A31G A92G A94G U109A the value was 0; for G34A U62G A136G, 0.06.
With G33A G48A U143A, the self-cleavage was 1.03.
A30G U108C A140G: the self-cleavage is 0.
As to A31U A57U U96A A141G, the self-cleavage was determined as 0.5.
As for A30U G54A A59G A65G A79G, the self-cleavage stood at 0.
With G32A U47C A50G A69U U96C, the self-cleavage stood at 0.
For A30G U39A G44A A50G U134C the value was 1.25; for A30G U73A A142G, 1.38; for A30G A77G A79G, 1.53.
For G34A U62A A64G U109C A129G the value was 0.14; for G34A U73A U104A, 1.42; for G33U U46C A57U A141G, 0.54.
Consider G34U A42U U45C U52A A77U, for which the self-cleavage stood at 0.93.
For A31G A43G G82A U100C the value was 2.97.
G33U U85C C113U A117G: the self-cleavage came to 0.
On to A31G A65G A142G, for which the self-cleavage is 0.
In the case of A30U A31U U47A, the self-cleavage was 0.62.
In the case of A30G G49A U81A A107G, the self-cleavage came to 1.93.
In the case of G32C U45A U115C, the self-cleavage was 1.69.
Regarding A30U U46A A92G, the self-cleavage was 0.08.
For G32U U47A A57G U119C, the self-cleavage was 0.94.
A31G A50G G105A: the self-cleavage was 0.8.
As for G32U A94G U143A, the self-cleavage was 0.36.
As to G33A U47G U96C U104C, the self-cleavage is 0.14.
For A30U C84U U87C A107U C131U the value was 0.01.
Consider A30G U39A A69G, for which the self-cleavage amounted to 1.08.
Turning to A31G U115A A121G A138G, the self-cleavage was determined as 1.38.
As for A30G G105A U119A, the self-cleavage was found to be 2.76.
For A31U U102C C133U A141G the value was 1.15.
Turning to A31U U81C U96C, the self-cleavage was determined as 0.25.
In the case of G32A G114U A129G U143A, the self-cleavage came to 0.94.
For A31U U45A U81C U87C the value was 0.
Turning to A31U A77U A79G U115C C120U A141G, the self-cleavage was 1.12.
As for G33U A64G C146U, the self-cleavage worked out at 0.12.
For A31G C71U A141G the value was 0.15; for G33C U109C A117U, 1.53.
Regarding G32U A78U U108C U134C A141G, the self-cleavage came out at 2.75.

Source of the values: the RNAGym collection of RNA variant scans (doi:10.7554/elife.90254).
